“And” between values parts separate entries of the source, which are not always exact repeats. Equal values may be shown once. About 40 (0.2%) of roughly 16,000 compounds were called active. Another 1% or so got no clear call; they are omitted. Calls come from the whole dose curve; as a rule, active = well fitted activation curve with a large enough effect; inconclusive = small, poorly fitted or top-dose-only effect, or another doubt; inactive = no such curve, though single readings can be large or run the other way. The list shows a part of the results.
% is set by controls: 0 for no effect and ±100 for the full control effect.

Chain of UniProt Q8WZA2 (Q8WZA2 whole entry, looked up): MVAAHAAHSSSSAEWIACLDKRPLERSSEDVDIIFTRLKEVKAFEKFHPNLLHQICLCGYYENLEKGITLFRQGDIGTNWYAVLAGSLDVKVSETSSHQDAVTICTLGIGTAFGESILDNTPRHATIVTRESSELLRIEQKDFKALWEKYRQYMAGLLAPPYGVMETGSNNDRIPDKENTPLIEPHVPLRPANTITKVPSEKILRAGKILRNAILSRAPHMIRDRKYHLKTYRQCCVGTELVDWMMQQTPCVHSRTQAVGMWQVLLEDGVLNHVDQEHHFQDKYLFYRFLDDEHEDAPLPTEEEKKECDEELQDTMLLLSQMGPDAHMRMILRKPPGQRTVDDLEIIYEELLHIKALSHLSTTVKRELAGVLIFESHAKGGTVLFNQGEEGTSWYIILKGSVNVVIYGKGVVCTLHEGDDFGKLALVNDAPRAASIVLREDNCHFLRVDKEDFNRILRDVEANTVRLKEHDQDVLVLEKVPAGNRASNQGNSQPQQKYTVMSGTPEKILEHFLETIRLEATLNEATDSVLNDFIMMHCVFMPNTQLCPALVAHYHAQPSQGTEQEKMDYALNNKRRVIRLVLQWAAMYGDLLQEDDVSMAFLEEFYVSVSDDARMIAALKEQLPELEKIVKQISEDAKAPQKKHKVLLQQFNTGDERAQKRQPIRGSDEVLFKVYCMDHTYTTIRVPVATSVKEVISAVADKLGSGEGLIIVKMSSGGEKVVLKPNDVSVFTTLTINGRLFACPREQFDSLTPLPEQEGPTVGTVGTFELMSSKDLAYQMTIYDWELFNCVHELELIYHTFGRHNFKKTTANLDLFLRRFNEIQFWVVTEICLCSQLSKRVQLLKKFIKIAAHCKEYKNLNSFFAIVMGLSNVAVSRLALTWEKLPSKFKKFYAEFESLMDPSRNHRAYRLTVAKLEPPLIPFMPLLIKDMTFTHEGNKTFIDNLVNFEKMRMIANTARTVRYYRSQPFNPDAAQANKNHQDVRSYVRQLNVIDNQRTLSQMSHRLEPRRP

The target in the test is Rap guanine nucleotide exchange factor 4 (Homo sapiens) (UniProt Q8WZA2). Kind of test: Validation qHTS for agonist of cAMP-regulated guanine nucleotide exchange factor 4 (EPAC2).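 Note: exchange makes BODIPY-GDP fluorescence drop when released from Rap1B; series mostly up to about 150 µM.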 To be noted: EPAC2 Rap1B BODIPY-GDP exchange, fluorescence; activation: hits give high values. Put shortly:
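Signal normalized against 6.5 mM cAMP as agonist control. Mix of EPAC2 (100 nM), RAP1B-BODIPY-GDP (250 nM) and GDP (50 uM) was read kinetically at 480/540 nm, every 5 min over 30 min, after 5 min room-temperature incubation with compound.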
(In general: In qHTS, concentration-response curves come from the screen itself.)
`COc1ccc(CN2[C@@H](CC(=O)O)c3ccc(C(F)(F)F)cc3S2(=O)=O)cc1`: the activation is inactive: -7.78%.

As for `CC(O)[C@@H]1NC(=O)[C@H](Cc2ccccc2)NC(=O)[C@H](C(C)O)NC(=O)[C@H](CCCCN)NC(=O)[C@H](Cc2c[nH]c3ccccc23)NC(=O)[C@H](Cc2ccccc2)NC(=O)[C@H](Cc2ccccc2)NC(=O)[C@H](CC(N)=O)NC(=O)[C@H](CCCCN)NC(=O)[C@@H](NC(=O)CNC(=O)[C@H](C)N)CSSC[C@@H](C(=O)O)NC(=O)[C@H](CO)NC1=O` (some centres not stated), the activation was inactive: -0.92%.

Turning to `CCCCCCCCNC(C)C(O)c1ccc(SC(C)C)cc1` (configuration not stated), the activation was inactive: -9.26%.

For the molecule `O=C(c1ccncc1)N1CCC2(CCCN(c3ccncc3)C2)CC1`, the activation was inactive: -8.96%.

Turning to `CC(=O)CC(c1ccc([N+](=O)[O-])cc1)c1c(O)c2ccccc2oc1=O` (configuration not stated), the activation is inactive: -14.7%.

In the case of `O=C(O)c1cc([N+](=O)[O-])ccc1NCCCc1ccccc1`, the activation was inactive: -25% and inactive: -0.259% and inactive: -34.1%.

`O=C(O)c1cc(NCc2cc(O)ccc2O)ccc1O`: the activation is inactive: -2.79%.

On to `COc1ccccc1-c1cc(NCc2ccccc2)ncn1`, for which the activation is inactive: -14%.

On to `CC(C)(O)C#Cc1ccc(C(=O)NCCN2Cc3ccccc3OC(c3ccccc3F)C2)o1` (configuration not stated), for which the activation is inactive: 2.11%.

With `CN(C)c1ncc2nc(-c3cccs3)c(=O)n(Cc3cccs3)c2n1`, the activation was inactive: 10%.

Take `CCN(Cc1ccncc1)C(=O)[C@@H](CO)c1ccccc1`: the activation is inactive: -4.33%.

`CCN(CC)CCOC(=O)c1cccnc1`: the activation is inactive: -17.7%.

`CCC1(O)CC2CN(CCc3c([nH]c4ccccc34)[C@@](C(=O)OC)(c3cc4c(cc3OC)N(C=O)C3[C@]45CCN4CC=C[C@@](CC)([C@@H](OC(C)=O)[C@]3(O)C(=O)OC)[C@H]45)C2)C1` (some centres not stated): the activation was inactive: -3.06%.

`Oc1cc(-c2nc3ccccc3s2)cc2c1OCCN(Cc1cccn1-c1ccccn1)C2`: the activation is inactive: 7.3%.

In the case of `Cc1c(C(=O)NCC2CCCN(C)C2)cnn1-c1ncc2c(n1)-c1ccccc1CCC2` (configuration not stated), the activation was inactive: -3.51%.

As to `CCCn1c(=O)c2[nH]c(-c3ccc(OCC(=O)Nc4ccc(C(C)=O)cc4)cc3)nc2n(CCC)c1=O`, the activation is inactive: -1.61%.

As to `O=c1c(CCc2ccccc2)nc2cncnc2n1C1CC1`, the activation is inactive: 2.7%.

With `COC(=O)[C@H](CC(C)C)N(Cc1ccccc1)S(=O)(=O)N(Cc1ccccc1)[C@@H](CC(C)C)C(=O)OC`, the activation was inactive: 1.78%.

Consider `CC(C)C[C@H](NC(=O)[C@H](CCCCN)NC(=O)[C@H](CCCNC(=N)N)NC(=O)[C@H](C)NC(=O)[C@H](CO)NC(=O)[C@H](CCCCN)NC(=O)[C@H](CCCNC(=N)N)NC(=O)[C@H](C)NC(=O)CNC(=O)[C@@H](NC(=O)[C@H](Cc1ccccc1)NC(=O)CNC(=O)CNC(=O)[C@@H](N)Cc1ccccc1)[C@H](C)O)C(=O)N[C@@H](C)C(=O)N[C@@H](CC(N)=O)C(=O)N[C@@H](CCC(N)=O)C(=O)O`, for which the activation was inactive: 5.55%.

Regarding `O=C(NCC1Cc2cc(F)cc(-c3cnccn3)c2O1)C1COc2ccccc2O1` (configuration not stated), the activation is inactive: -0.427%.

Turning to `NC(=O)c1ccc[n+]([C@@H]2O[C@H](COP(=O)([O-])OP(=O)(O)OC[C@H]3O[C@@H](n4cnc5c(N)ncnc54)[C@H](O)[C@@H]3O)[C@@H](O)[C@H]2O)c1`, the activation is inactive: 9.61% and inactive: 1.7%.

Consider `CN1CCN(c2ncc3nc(-c4cccc(C#N)c4)c(=O)n(C)c3n2)CC1`, for which the activation is inactive: -30.7%.

Take `COCC(=O)N1CCC2(CC1)CN(C(=O)Nc1ccccc1)C2`: the activation was inactive: -10.7%.

In the case of `CC(=O)O[C@H]1C[C@@H]2CC[C@@H]3[C@H](CC[C@@]4(C)[C@H]3C[C@H](N3CC[N+](C)(C)CC3)[C@@H]4OC(C)=O)[C@@]2(C)C[C@@H]1N1CC[N+](C)(C)CC1`, the activation is inactive: -6.49%.

Regarding `NCC(=O)CCC(=O)O`, the activation is inactive: -20.5%.

On to `CSc1nc(N)c2ncn([C@H]3O[C@H](COP(=O)(O)OP(=O)(O)OP(=O)(O)O)[C@@H](O)[C@@H]3O)c2n1`, for which the activation was inactive: -20.6%.

Take `COc1ccc2[nH]cc(CCNc3nc(-c4ccccc4OC)nc4ccccc34)c2c1`: the activation was inactive: 6.5%.

As for `CCc1ccc(C=O)cc1`, the activation was inactive: -1.72%.

On to `O=C(c1cnccn1)N1CCC2(CC1)CN(c1ccccc1)C2`, for which the activation is inactive: -14.6%.

For the molecule `CC(C)c1c(C(=O)NCc2cccnc2)cnn1-c1nccc(-c2cccs2)n1`, the activation was inactive: 2.31%.

On to `C[C@@H]1NS(=O)(=O)[C@H]2C[C@@H]3C=C[C@]2(O3)[C@H]1OC(=O)c1ccccc1Br`, for which the activation was inactive: -8.7%.

For `Cc1cc2c(OCC(CNC(C)(C)C)OC(=O)c3ccccc3)cccc2[nH]1` (configuration not stated), the activation is inactive: -7.48%.

For `COc1c2ccoc2cc2oc(C)cc(=O)c12`, the activation was inactive: -1.43%.

`CCNc1ncc2nc(-c3cc(F)cc(F)c3)c(=O)n(CCC#N)c2n1`: the activation is inactive: -2.32%.

With `CN(C)CCC=C1c2ccccc2C(C)(C)c2ccccc21`, the activation is inactive: 9.01%.

In the case of `COc1ccccc1C1CN(Cc2cccc(OCCO)c2)Cc2ccccc2O1` (configuration not stated), the activation was inactive: -16.1%.

Turning to `COc1ccc(CN(CCN(C)C)c2ncccn2)cc1`, the activation was inactive: -9.76%.

As for `N=C(N)SCCc1ccc(CCSC(=N)N)cc1`, the activation is inactive: -12.8%.

As for `O=C(/C=C/c1cccc(F)c1)NC1CC1`, the activation is inactive: -19%.

Consider `O=C(O)C[C@H]1c2cc(C(F)(F)F)ccc2S(=O)(=O)N1Cc1ccccc1`, for which the activation was inactive: -16.7%.

Consider `CN1CCN(C(=O)C2CCCCC2)CC1`, for which the activation was inactive: 2.68%.

As for `Oc1ccc(C2CNCc3sccc32)cc1O` (configuration not stated), the activation was inactive: -21.1%.

On to `COC(=O)c1c(C)c2c(c(C)c1O)OC(=O)c1c(C)c(Cl)c(O)c(Cl)c1O2`, for which the activation was inactive: -24.6% and inactive: -13.2%.

As for `COc1cc(C(=O)N2CCCCCCC2)cc(OC)c1OC`, the activation is inactive: -6.18%.

Take `COc1ccccc1CNc1ncnc2ccc(-c3ccccc3C#N)cc12`: the activation was inactive: -6.97%.

On to `Cc1cnc(-n2ncc(C(=O)NCc3ccncc3)c2C(C)C)nc1-c1ccc(F)cc1`, for which the activation is inactive: 2.75%.

`O=C(c1csnn1)N1CCC[C@@]2(CCN(Cc3nccs3)C2)C1`: the activation is inactive: -13.8%.

`O=C(O)C[C@H](O)C[C@H](O)/C=C/c1c(C2CC2)nc2ccccc2c1-c1ccc(F)cc1`: the activation is inactive: -3.36%.

`CCNc1ncc2nc(C)c(=O)n(C3CC3)c2n1`: the activation was inactive: -2.57%.

In the case of `CC1=C(C(=O)O)N2C(=O)[C@@H](NC(=O)C(N)C3=CCC=CC3)[C@H]2SC1` (some centres not stated), the activation was inactive: -25.8%.

`O=c1[nH]c2cc(Cl)ccc2c(O)c1-c1cccc(Oc2ccccc2)c1`: the activation was inactive: -11.3%.

As to `COc1cccc(-c2nccc(NCc3ccccc3)n2)c1`, the activation is inactive: -15.8%.

In the case of `Cc1cc(/C=C/c2ccccc2)nc2ccccc12`, the activation is inactive: -2.68%.

Regarding `Cc1ccc(C)c(OCCCC(C)(C)C(=O)O)c1`, the activation was inactive: -17.8% and inactive: -30.2% and inactive: 25.6%.

For the molecule `C[C@@H]1CCC2[C@@H](C)[C@@H](O)O[C@@H]3O[C@@]4(C)CC[C@@H]1[C@@]23OO4` (some centres not stated), the activation was inactive: -10.8%.

As for `O=C1CCN(Cc2ccccc2)S(=O)(=O)c2c(F)cc(F)cc21`, the activation was inactive: 0.124%.

As to `C=CCN1CCc2c(cc(O)c(O)c2Cl)C(c2ccccc2)C1` (configuration not stated), the activation is inactive: -4.02% and inactive: -35.1%.

For the molecule `COc1ccccc1-c1ccc2ncnc(N3CCN(C)CC3)c2c1`, the activation is inactive: -10.8%.

`CN(C)Cc1ccccc1`: the activation was inactive: 5.77%.

Consider `O=C(CCCN1CCC(O)(c2ccc(Cl)cc2)CC1)c1ccc(F)cc1`, for which the activation was inactive: -5.61% [middle of 4 runs].

`O=C(O)c1cc(O)c2c(c1)C(=O)c1cc(O)cc(O)c1C2=O`: the activation was inactive: -17.1%.

With `CCCCCCCCCCCCCCCC[n+]1ccc(C)c2ccccc21`, the activation is inactive: -24%.

In the case of `CC(=O)OCC(=O)[C@@]1(O)CCC2C3CC[C@H]4CC(O)CC[C@@]4(C)C3C(=O)C[C@]21C` (some centres not stated), the activation is inactive: -14.5%.

As to `CC(C)NC(=O)N1CCCC2(CCN(C(=O)c3cc(C(F)(F)F)cc(C(F)(F)F)c3)CC2)C1`, the activation was inactive: -35.6%.

With `O=C1CCC[C@@H]2C[C@@]3(C[C@@H]4CCN1[C@H]24)Nc1cc(Cl)ccc1NC3=NCc1ccccc1`, the activation is inactive: -12%.

For `C[C@@H]1CCC2[C@](C)(CO)C(O)CC[C@@]2(C)[C@@]12CC[C@](CO)(CCO)O2` (some centres not stated), the activation is inactive: -2.29%.

As for `COc1cc2c(cc1OC)C1C(=O)c3c(cc4c(c3O)C=CC(C)(C)O4)OC1CO2` (configuration not stated), the activation was inactive: -5.22%.

In the case of `Cc1cnc(CNc2nc(-c3ccc4c(c3)OCO4)nc3ccccc23)cn1`, the activation was inactive: -1.22%.

Turning to `Cn1cccc1C(=O)N1CCC2(CC1)CN(C(=O)Nc1ccccc1)C2`, the activation is inactive: -6.8%.

For the molecule `COCCn1c(=O)c(-c2ccc(OC)cc2)nc2cnc(N3CCOCC3)nc21`, the activation was inactive: -5.39%.

Regarding `CCOC(=O)C1=C[C@@]2(CC)CCCN3CCc4c(n1c1ccccc41)[C@H]32`, the activation is inactive: -0.763%.

On to `NCCC(=O)c1ccccc1N`, for which the activation is inactive: 0.988%.

With `CC(C)(C)NCC(O)c1ccc(O)c(CO)n1` (configuration not stated), the activation is inactive: -12.7%.

Regarding `C[C@H](/C=C/[C@H](C)C(C)(C)O)[C@H]1CC[C@H]2/C(=C/C=C3C[C@@H](O)C[C@H](O)C3)CCC[C@]12C`, the activation was inactive: -4.1%.

On to `COCC(=O)N1CCC2(CCN(Cc3ccccc3OC)CC2)CC1`, for which the activation was inactive: -4.71%.

Turning to `CCC(C)(C)C(=O)OC1CC(C)C=C2C=CC(C)C(CCC3CC(O)CC(=O)O3)C21` (configuration not stated), the activation was inactive: -11.4%.

For `CC1(C)[C@@H](O)CC[C@]2(C)[C@H]3C(=O)C=C4[C@@H]5C[C@@](C)(C(=O)O)CC[C@]5(C)CC[C@@]4(C)[C@]3(C)CC[C@@H]12`, the activation was inactive: -4.71% and inactive: -30.1%.

Source of the values: PubChem BioAssay AID1645887 (National Center for Advancing Translational Sciences (NCATS), 2021).
